Laboratory results as given in publication PMC4336329 (PLoS ONE, 2015).
Screen size: about 310,000 compounds; about 14,000 (4.5%) showed an effect of 50% or more. The effect is printed as a negative number. Some of the results follow.

Molecular target: human ether-à-go-go-related gene (hERG) potassium channel (human, UniProt Q12809)
Experiment: primary screen, population patch clamp on CHO cells stably expressing hERG
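Further: peak tail current of the secondary pulse compared with the same well before compound.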

Sequence of human ether-à-go-go-related gene (hERG) potassium channel (Q12809 whole entry, looked up): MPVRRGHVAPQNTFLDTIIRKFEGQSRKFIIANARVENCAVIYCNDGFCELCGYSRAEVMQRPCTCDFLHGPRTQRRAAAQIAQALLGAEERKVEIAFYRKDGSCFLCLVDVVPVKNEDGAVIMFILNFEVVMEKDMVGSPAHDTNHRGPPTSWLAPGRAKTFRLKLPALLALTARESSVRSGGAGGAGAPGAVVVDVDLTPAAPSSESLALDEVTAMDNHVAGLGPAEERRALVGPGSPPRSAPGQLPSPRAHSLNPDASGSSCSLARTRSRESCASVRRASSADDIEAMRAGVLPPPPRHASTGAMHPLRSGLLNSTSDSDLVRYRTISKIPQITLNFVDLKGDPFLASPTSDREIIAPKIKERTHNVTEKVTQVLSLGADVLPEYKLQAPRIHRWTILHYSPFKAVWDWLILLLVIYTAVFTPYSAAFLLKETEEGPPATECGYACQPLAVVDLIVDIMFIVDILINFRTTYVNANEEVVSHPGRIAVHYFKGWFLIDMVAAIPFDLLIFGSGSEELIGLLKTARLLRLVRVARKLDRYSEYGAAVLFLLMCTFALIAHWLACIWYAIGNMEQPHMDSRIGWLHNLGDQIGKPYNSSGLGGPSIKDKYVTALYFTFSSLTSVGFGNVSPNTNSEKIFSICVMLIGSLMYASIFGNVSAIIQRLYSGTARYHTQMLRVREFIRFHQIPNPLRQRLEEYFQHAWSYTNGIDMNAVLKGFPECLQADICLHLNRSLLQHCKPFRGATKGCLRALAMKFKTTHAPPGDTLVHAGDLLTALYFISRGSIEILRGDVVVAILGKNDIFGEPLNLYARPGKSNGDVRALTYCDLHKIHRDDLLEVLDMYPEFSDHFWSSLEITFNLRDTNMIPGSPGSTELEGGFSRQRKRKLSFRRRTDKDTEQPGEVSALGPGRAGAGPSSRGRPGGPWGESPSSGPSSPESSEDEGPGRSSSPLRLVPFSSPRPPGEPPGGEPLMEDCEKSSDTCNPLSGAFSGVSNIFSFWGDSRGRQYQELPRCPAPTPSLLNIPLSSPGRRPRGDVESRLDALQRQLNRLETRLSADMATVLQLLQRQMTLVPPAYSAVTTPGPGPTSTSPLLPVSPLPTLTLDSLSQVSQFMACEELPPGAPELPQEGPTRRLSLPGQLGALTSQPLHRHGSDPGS

SMILES	hERG current change (%, negative = inhibition) at 10uM
CN(C)Cc1ccc(CNC(=O)c2ccc(Cl)c(S(=O)(=O)NC3CC3)c2)cc1	7.46%
CC(Oc1cc(-c2ccccc2)cc2ccccc12)C(=O)N1CCOCC1 (centres unmarked)	1.68%
COc1ccc(C(=O)C2CCCN(C(=O)c3cccc(N(C)C)c3)C2)cc1OC (centres unmarked)	6.64%
C=CCOC(=O)Cn1cnc2c(sc3nc(C)cc(C)c32)c1=O	9.96%
Cc1cc(Cl)ccc1NC(=S)NCc1ccccc1Cl	19.4%
Cn1c(=O)c(=O)n(C)c2cc(S(=O)(=O)N3CCN(c4ccccc4F)CC3)ccc21	3.38%
O=C(N/N=C/c1ccccc1O)c1cc(=O)[nH]c2ccccc12	-1.25%
Cc1ccc(C2=NC3(CCCCC3)NC2=S)cc1	5.86%
CCCOc1ccc(C(=O)Nc2ccc(S(=O)(=O)N3C[C@@H]4C[C@@H](C3)c3cccc(=O)n3C4)cc2)cc1	-0.566%
CC(Sc1nc2ccc(C(=O)c3ccccc3)cc2[nH]1)C(=O)O (centres unmarked)	15.7%
CSCCC(NC(=O)c1ccc(Cl)cc1Cl)C(=O)OC1CCCCC1=O (centres unmarked)	-26.7%
N#Cc1cc(-c2ccccc2)oc1NC(=O)c1ccco1	-22.2%
COc1cc(OC)c(NS(=O)(=O)c2cc(C(=O)OCC(=O)NCC3CCCO3)ccc2OC)cc1Cl (centres unmarked)	5%
CC(=O)Oc1ccc(/C=N/NC2=NS(=O)(=O)c3ccccc32)cc1	20.6%
C=CCn1cc(C(=O)NCCOC)c(=O)c2cc(S(=O)(=O)N(CC)CC)ccc21	-13.9%
Cc1ccc(C2(C)NC(=O)N(CC(=O)Nc3ccc(N4CCOCC4)cc3N3CCOCC3)C2=O)cc1 (centres unmarked)	-4.17%
COc1ccc(OC)c(S(=O)(=O)Nc2cc3c4c(c2)CC(=O)N4CCC3)c1	10.6%
CN(CCc1ccccn1)C(=O)CC1C(=O)NCCN1Cc1ccccc1C(F)(F)F (centres unmarked)	-0.462%
O=C1CSC(=NC(=O)c2ccccc2)N1	-4.42%
Cc1cc(C)n2nc(CNS(=O)(=O)c3cccc([N+](=O)[O-])c3)nc2n1	21.2%
Br.COc1cccc(C(=O)Cn2c(NCCCO)nc3ccccc32)c1	10.1%
COC(=O)c1ccc(CSc2nc3c(c(=O)n2-c2ccc(F)cc2)SCC3)o1	-5.5%

SMILES	hERG current change (%, negative = inhibition) at 10uM
O=C(COc1ccc(Br)cc1)NNC(=S)NCc1ccccc1	8.46%
CN(CCO)c1cc(NCCCN2CCC(Cc3ccccc3)CC2)c2nonc2c1[N+](=O)[O-]	-38%
COc1cc(C(=O)NCCCn2ccnc2)cc(OC)c1OC.Cl	20.6%
Cl.O=C(CNCC1CCCO1)Nc1ccccc1-n1cccc1 (centres unmarked)	-3.97%
CCCCOC(=O)Nc1nnc(CCc2ccccc2)s1	12%
O=C(O)c1cccn1Cc1ccccc1F	3.84%
Cc1nc(CSc2n[nH]c(=O)n2-c2ccccc2)cs1	9.9%
CCOC(=O)C1(Cc2ccc(OC)cc2)CCN(C(=O)CN2CCOC2=O)CC1	24.2%
CCC(=O)Nc1ccc2oc(-c3ccccc3Br)nc2c1	8.17%
COc1ccc(NC(=O)c2cc3c(=O)n(C)c4ccccc4c3s2)cc1OC	13.5%
Cc1ccccc1N(CC(=O)N1CCOCC1)S(C)(=O)=O	27.9%
O=C(O)C1C2C=CC(O2)C1C(=O)NC1CCCc2ccccc21 (centres unmarked)	9.61%
Cc1[nH]c2ccccc2c1/C=C/C(=O)c1ccncc1	11.4%
O=C(O)CN1C(=O)/C(=C\c2cccc(OCc3ccc(F)cc3)c2)SC1=S	14.9%
O=C(NCc1ccccc1)/C(=C/c1ccco1)NC(=O)c1ccco1	-18.1%
O=C(COC(=O)COc1cccc(C(F)(F)F)c1)NC1CCS(=O)(=O)C1 (centres unmarked)	7.36%
O=C(C[n+]1ccc2ccccc2c1)c1cccc2ccccc12.[Br-]	-72.8%
CCOC(=O)Cn1c(-c2nonc2NC(=O)c2ccccc2F)nc2ccccc21	5.56%
COc1ccc(N2CCN(C3CCCN(C(=O)C4=C(C)OCCO4)C3)CC2)cc1 (centres unmarked)	-11.7%
C=CCn1c(SCC(=O)/C(C#N)=C(\C)N)nc2sc(CC)cc2c1=O	13.3%
CCN(C(=O)COC(=O)/C=C/c1ccccc1)C1CCCCC1	-24.2%
Cc1ccc(-n2nc3c(=O)n(CC(=O)NCCc4ccco4)nc(C)c3c2C)cc1	-6.64%

SMILES	hERG current change (%, negative = inhibition) at 10uM
Cc1ccc(S(=O)(=O)CC(=O)c2ccc([N+](=O)[O-])cc2)cc1	-14.5%
Cc1cccc(-c2ccc(C=Nc3c(C)n(C)n(-c4ccccc4)c3=O)o2)c1	-12.7%
CN1C(=O)[C@@H]2[C@@H]3C[C@@H]([C@H]4ON=C(c5ccccc5OCC#N)[C@@H]34)[C@@H]2C1=O	-5.89%
Cc1ccc(S(=O)(=O)NCCC(=O)Nc2nnc(C3CC3)s2)cc1C	9.34%
COc1ccc(Cc2nc3ccc(C(=O)N4CCN(C)C(C)C4)cc3o2)cc1OC (centres unmarked)	-1.59%
O=S(=O)(c1cnccc1N1CCN(CCO)CC1)N1CCCCC1	3.21%
Cc1cccc(N(C(=O)Cn2nnc3ccccc32)C(C(=O)NCc2ccco2)c2ccncc2)c1 (centres unmarked)	7.4%
O=C(Nc1c(-c2ccccc2)nc2ncccn12)c1cc2ccccc2oc1=O	-12.2%
O=C(C1Cc2ccccc2CN1C(=O)c1ccco1)N1CCN(c2ccccc2)CC1 (centres unmarked)	-44.2%
COc1cc(C(C(=O)NC(C)(C)C)N(C(=O)CNC(=O)c2cccs2)c2cccnc2)cc(OC)c1OC (centres unmarked)	17.7%
CCCc1nnc(SCC(=O)N2CCCC2)n1Cc1ccco1	1.2%
COc1cccc(-n2ccn(CC(=O)NCCc3ccccc3)c(=O)c2=O)c1	18.5%
CC1CCCC(C)N1C(=O)C1CC(c2ccc(F)cc2)=NO1 (centres unmarked)	-7.79%
O=C(Nc1ccc(CN2CCOCC2)cc1)c1cccs1	-8.45%
O=C(NCCN1CCOCC1)NC1(C(F)(F)F)Oc2ccc(Cl)cc2O1 (centres unmarked)	-1.06%
CCSc1nnc(NC(=O)c2cccs2)s1	-8.23%
COc1cccc(NC(=O)CN(c2ccc(C)cc2)S(=O)(=O)c2c(C)nn(C)c2C)c1	-17.8%
Cc1sc(NC(=O)CSc2nnc(C)c(=O)[nH]2)c(C#N)c1C	16.9%
CC(C)COC(=O)c1cc(-c2ccc(/C=N/n3cnnc3)o2)ccc1Cl	-6.12%
Cc1cc(C)c(NC(=O)c2cc(=O)c3ccccc3o2)c(C)c1	-0.368%
Cc1cc2ncn(CCCCOc3ccccc3)c2cc1C	-6.68%
Cc1ccc(C(=O)C(OC(=O)CCC(=O)Nc2cccc(C)c2)c2ccccc2)cc1 (centres unmarked)	0.916%

SMILES	hERG current change (%, negative = inhibition) at 10uM
O=C1CCC(=O)N1c1ccc(-c2nc3sc4c(c3c(=O)o2)CCC4)cc1	-1.7%
Cc1ccc(C)c(SCC(=O)NCC(c2ccco2)N2CCCCC2)c1 (centres unmarked)	-9.42%
Cc1ccnc(NC(=O)CNC(=O)c2ccc3c(c2)OCO3)c1	9.1%
Cc1ccc(NC(=O)c2cc(N3C(=O)C=CC3=O)ccc2N2CCOCC2)cc1Cl	14.2%
COc1cccc(/C=C2\SC(=O)N(CC(=O)NCCCn3ccnc3)C2=O)c1	-31.6%
Cc1ccc(CC(=O)Nc2nccs2)cc1C	14.3%
O=C(NCC(c1ccco1)N1CCCCC1)c1ccc(NS(=O)(=O)c2ccc(F)cc2)cc1 (centres unmarked)	-13%
COc1cccc(CC(NC(C)=O)C(=O)NC2CCN(c3nnnn3-c3ccccc3)CC2)c1OC (centres unmarked)	31.9%
COC(=O)CCCCCC(CCC(=O)OC)NC(C)=O (centres unmarked)	10.6%
COc1ccc(Br)cc1/C=C1\Oc2ccccc2NC1=O	10.1%
CCOc1nc2ccccc2cc1C=O	-5.31%
Cc1ccc(N(C(=O)Cn2nnc3ccccc32)C(C(=O)NCc2ccco2)c2cccnc2)cc1 (centres unmarked)	-6.28%
Nc1ccccc1SCC(=O)Nc1ccc2c(c1)OCO2	6.68%
CC1(C)O[C@@H]2[C@H](O1)[C@@H](CO)O[C@H]2n1ccc(=O)[nH]c1=O	17.8%
NC(=O)C1CCN(C(=O)/C=C/c2ccco2)CC1	16.8%
Cc1ccccc1C(O)c1cccnc1 (centres unmarked)	22.9%
COc1ccc(CNC(=O)c2ccc(N(C)S(=O)(=O)c3ccc(C)cc3)cc2)cc1	-16.8%
Cc1ccc(N(C(=O)CS(=O)CC(=O)Nc2ccc(F)cc2)C(C(=O)NC2CCCCC2)c2ccco2)cc1 (centres unmarked)	3.77%
COC(=O)c1ccc(-c2nc(O)c(C)s2)cc1	16%
CN(C)c1nc(OCCNC(=O)COc2ccc(Cl)cc2Cl)nc(N2CCOCC2)n1	-6.89%
